The values that follow come from article PMC9911399, “Two distinct binding modes provide the RNA-binding protein RbFox with extraordinary sequence specificity”.

Substitutions are numbered along the chain they refer to; changes in the protein carry UniProt numbers. This is one part of the list.

T1: RBFOX1 RRM RbFoxmut (Fox-RRM*) (Homo sapiens, UniProt Q9NWB1 109-208, R118D;E147R;N151S;E152T)
T1 sequence: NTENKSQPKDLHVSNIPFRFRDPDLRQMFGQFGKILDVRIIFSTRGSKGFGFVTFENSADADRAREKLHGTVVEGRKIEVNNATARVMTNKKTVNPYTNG

B1: ACUUAAG (DNA:RNA)
RNA: GGGAGACCGGAAUUCAGAUUGUCCACUUAAGUUAAAUCCCGUCGUAGCCACCA
DNA 1: CAATCTGAATTCCGGTCTCCC
DNA 2: TGGTGGCTACGACGGGATT
B2: AGCCUGC (DNA:RNA)
RNA: B1 RNA with C26G, U27C, U28C, A29U, A30G, G31C
DNA 1: CAATCTGAATTCCGGTCTCCC
DNA 2: TGGTGGCTACGACGGGATT
B3: AUAUCCG (DNA:RNA)
RNA: B1 RNA with C26U, U27A, A29C, A30C
DNA 1: CAATCTGAATTCCGGTCTCCC
DNA 2: TGGTGGCTACGACGGGATT
B4: UAGGUAA (DNA:RNA)
RNA: B1 RNA with A25U, C26A, U27G, U28G, A29U, G31A
DNA 1: CAATCTGAATTCCGGTCTCCC
DNA 2: TGGTGGCTACGACGGGATT
B5: AGUACCC (DNA:RNA)
RNA: B1 RNA with C26G, U28A, A29C, A30C, G31C
DNA 1: CAATCTGAATTCCGGTCTCCC
DNA 2: TGGTGGCTACGACGGGATT
B6: AAAUGCA (DNA:RNA)
RNA: B1 RNA with C26A, U27A, A29G, A30C, G31A
DNA 1: CAATCTGAATTCCGGTCTCCC
DNA 2: TGGTGGCTACGACGGGATT
B7: AGCAUUC (DNA:RNA)
RNA: B1 RNA with C26G, U27C, U28A, A29U, A30U, G31C
DNA 1: CAATCTGAATTCCGGTCTCCC
DNA 2: TGGTGGCTACGACGGGATT
B8: UCCCGUC (DNA:RNA)
RNA: B1 RNA with A25U, U27C, U28C, A29G, A30U, G31C
DNA 1: CAATCTGAATTCCGGTCTCCC
DNA 2: TGGTGGCTACGACGGGATT
B9: CCUGGUU (DNA:RNA)
RNA: B1 RNA with A25C, U28G, A29G, A30U, G31U
DNA 1: CAATCTGAATTCCGGTCTCCC
DNA 2: TGGTGGCTACGACGGGATT
B10: GCGCCAG (DNA:RNA)
RNA: B1 RNA with A25G, U27G, U28C, A29C
DNA 1: CAATCTGAATTCCGGTCTCCC
DNA 2: TGGTGGCTACGACGGGATT
B11: GCGUGGC (DNA:RNA)
RNA: B1 RNA with A25G, U27G, A29G, A30G, G31C
DNA 1: CAATCTGAATTCCGGTCTCCC
DNA 2: TGGTGGCTACGACGGGATT
B12: ACAUCCA (DNA:RNA)
RNA: B1 RNA with U27A, A29C, A30C, G31A
DNA 1: CAATCTGAATTCCGGTCTCCC
DNA 2: TGGTGGCTACGACGGGATT
B13: GGCUCGU (DNA:RNA)
RNA: B1 RNA with A25G, C26G, U27C, A29C, A30G, G31U
DNA 1: CAATCTGAATTCCGGTCTCCC
DNA 2: TGGTGGCTACGACGGGATT
B14: AGAUAUC (DNA:RNA)
RNA: B1 RNA with C26G, U27A, A30U, G31C
DNA 1: CAATCTGAATTCCGGTCTCCC
DNA 2: TGGTGGCTACGACGGGATT
B15: GCCUGAU (DNA:RNA)
RNA: B1 RNA with A25G, U27C, A29G, G31U
DNA 1: CAATCTGAATTCCGGTCTCCC
DNA 2: TGGTGGCTACGACGGGATT
B16: AGCCUUU (DNA:RNA)
RNA: B1 RNA with C26G, U27C, U28C, A29U, A30U, G31U
DNA 1: CAATCTGAATTCCGGTCTCCC
DNA 2: TGGTGGCTACGACGGGATT
B17: GCGGGUA (DNA:RNA)
RNA: B1 RNA with A25G, U27G, U28G, A29G, A30U, G31A
DNA 1: CAATCTGAATTCCGGTCTCCC
DNA 2: TGGTGGCTACGACGGGATT
B18: UGCUCAG (DNA:RNA)
RNA: B1 RNA with A25U, C26G, U27C, A29C
DNA 1: CAATCTGAATTCCGGTCTCCC
DNA 2: TGGTGGCTACGACGGGATT
B19: GAGUAAA (DNA:RNA)
RNA: B1 RNA with A25G, C26A, U27G, G31A
DNA 1: CAATCTGAATTCCGGTCTCCC
DNA 2: TGGTGGCTACGACGGGATT
B20: UCUCGUG (DNA:RNA)
RNA: B1 RNA with A25U, U28C, A29G, A30U
DNA 1: CAATCTGAATTCCGGTCTCCC
DNA 2: TGGTGGCTACGACGGGATT
B21: AACUUAC (DNA:RNA)
RNA: B1 RNA with C26A, U27C, A29U, G31C
DNA 1: CAATCTGAATTCCGGTCTCCC
DNA 2: TGGTGGCTACGACGGGATT
B22: AGGUGGA (DNA:RNA)
RNA: B1 RNA with C26G, U27G, A29G, A30G, G31A
DNA 1: CAATCTGAATTCCGGTCTCCC
DNA 2: TGGTGGCTACGACGGGATT
B23: GACUACU (DNA:RNA)
RNA: B1 RNA with A25G, C26A, U27C, A30C, G31U
DNA 1: CAATCTGAATTCCGGTCTCCC
DNA 2: TGGTGGCTACGACGGGATT
B24: AUCAGCC (DNA:RNA)
RNA: B1 RNA with C26U, U27C, U28A, A29G, A30C, G31C
DNA 1: CAATCTGAATTCCGGTCTCCC
DNA 2: TGGTGGCTACGACGGGATT
B25: GAAGAAG (DNA:RNA)
RNA: B1 RNA with A25G, C26A, U27A, U28G
DNA 1: CAATCTGAATTCCGGTCTCCC
DNA 2: TGGTGGCTACGACGGGATT
B26: CAUGCAU (DNA:RNA)
RNA: B1 RNA with A25C, C26A, U28G, A29C, G31U
DNA 1: CAATCTGAATTCCGGTCTCCC
DNA 2: TGGTGGCTACGACGGGATT
B27: AAGCCAG (DNA:RNA)
RNA: B1 RNA with C26A, U27G, U28C, A29C
DNA 1: CAATCTGAATTCCGGTCTCCC
DNA 2: TGGTGGCTACGACGGGATT
B28: AUGUCAC (DNA:RNA)
RNA: B1 RNA with C26U, U27G, A29C, G31C
DNA 1: CAATCTGAATTCCGGTCTCCC
DNA 2: TGGTGGCTACGACGGGATT
B29: GAAGUCG (DNA:RNA)
RNA: B1 RNA with A25G, C26A, U27A, U28G, A29U, A30C
DNA 1: CAATCTGAATTCCGGTCTCCC
DNA 2: TGGTGGCTACGACGGGATT
B30: CUCAUGA (DNA:RNA)
RNA: GGGAGACCGGAAUUCAGAUUGUCCCUCAUGAUUAAAUCCCGUCGUAGCCACCA
DNA 1: CAATCTGAATTCCGGTCTCCC
DNA 2: TGGTGGCTACGACGGGATT
B31: CCGCUCU (DNA:RNA)
RNA: B30 RNA with U26C, C27G, A28C, G30C, A31U
DNA 1: CAATCTGAATTCCGGTCTCCC
DNA 2: TGGTGGCTACGACGGGATT

The test concerns the target T1, RBFOX1 RRM RbFoxmut (Fox-RRM*). Briefly: EMSA; HiTS-Eq, 1 nM pool, 10 min; buffer printed only for the single-RNA assays: 10 mM Tris pH 7.5, 150 mM NaCl, 3.4 mM EDTA, 0.001% NP-40, 30 C. The following applies: tags: His6 N-terminal (pET28a); label: 5' 32P. The method, boiled down: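 These values rest on relative association constants, computed from read-count changes of each RNA species versus the control reaction and normalised to the cognate motif. Reads came from free RNA recovered by 8% native PAGE after purified RbFox RRM (wild type or mutant) at increasing concentrations was equilibrated for 10 min in 50 µL with 1 nM of a 5′-radiolabelled pool with 7 randomized nucleotides and DNA-annealed flanks.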
Background: In EMSA bound probe runs differently from free probe, usually more slowly.
Regarding B1, the binding signal was 0.174 KA relative to UGCAUGU.

B2: the binding signal is 0.0804 KA relative to UGCAUGU.

As to B3, the binding signal is 0.0989 KA relative to UGCAUGU.

Take B4: the binding signal was 0.0984 KA relative to UGCAUGU.

As for B5, the binding signal is 0.0811 KA relative to UGCAUGU.

B6: the binding signal is 0.155 KA relative to UGCAUGU.

Take B7: the binding signal was 0.0738 KA relative to UGCAUGU.

In the case of B8, the binding signal was 0.0849 KA relative to UGCAUGU.

Take B9: the binding signal is 0.0981 KA relative to UGCAUGU.

With B10, the binding signal was 0.0856 KA relative to UGCAUGU.

For the molecule B11, the binding signal was 0.143 KA relative to UGCAUGU.

As for B12, the binding signal was 0.0957 KA relative to UGCAUGU.

Take B13: the binding signal is 0.249 KA relative to UGCAUGU.

On to B14, for which the binding signal is 0.0876 KA relative to UGCAUGU.

In the case of B15, the binding signal is 0.113 KA relative to UGCAUGU.

Consider B16, for which the binding signal is 0.057 KA relative to UGCAUGU.

On to B17, for which the binding signal is 0.157 KA relative to UGCAUGU.

With B18, the binding signal was 0.0844 KA relative to UGCAUGU.

Turning to B19, the binding signal is 0.097 KA relative to UGCAUGU.

Consider B20, for which the binding signal is 0.12 KA relative to UGCAUGU.

As for B21, the binding signal was 0.0902 KA relative to UGCAUGU.

For B22, the binding signal was 0.0973 KA relative to UGCAUGU.

Turning to B23, the binding signal is 0.103 KA relative to UGCAUGU.

Consider B24, for which the binding signal is 0.0782 KA relative to UGCAUGU.

For B25, the binding signal is 0.0975 KA relative to UGCAUGU.

Turning to B26, the binding signal is 0.143 KA relative to UGCAUGU.

On to B27, for which the binding signal is 0.112 KA relative to UGCAUGU.

With B28, the binding signal was 0.0902 KA relative to UGCAUGU.

On to B29, for which the binding signal was 0.103 KA relative to UGCAUGU.

Take B30: the binding signal was 0.115 KA relative to UGCAUGU.

As for B31, the binding signal is 0.0607 KA relative to UGCAUGU.
